# Measurements taken from the supplement of paper PMC12217912.
# The other results are listed elsewhere or left out. The full chains were built here from the parent and the listed change. Values near 0.05 are background.
# B1: TEV protease; numbered along this chain (parent)
# chain: MGESLFKGPRDYNPISSSICHLTNESDGHTTSLYGIGFGPFIITNKHLFRRNNGTLVVQSLHGVFKVKDTTTLQQHLVDGRDMIIIRMPKDFPPFPQKLKFREPQREERICLVTTNFQTKSMSSMVSDTSCTFPSGDGIFWKHWIQTKDGQCGSPLVSTRDGFIVGIHSASNFTNTNNYFTSVPKNFMELLTNQEAQQWVSGWRLNADSVLWGGHKVFMVKPEEPFQPVKEATQL
# Variants of: B1
# Assay: raw area under fraction-flipped curve 0-4 h after induction (AUC4h, not background-subtracted), DNA-recorder readout of cleavage of the substrate (dimensionless); higher = more cleavage of the substrate by the protease variant
# Conditions: temperature: 34 °C; time window: 0-4 h after rhamnose induction
# Method: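 In vivo DNA recorder in E. coli TOP10(DE3) ΔrhaA at 34 °C. Each TEVp single-site mutant (parent TEVp 0) is paired with a single-site variant of the 7-mer TEVs (canonical ENLYFQ|S). The substrate sits between flexible linkers in a Bxb1-sfGFP-TEVs-SsrA fusion, so cleavage stabilises Bxb1 and speeds flipping of a recombination array, read by NGS. The value is the raw area under the fraction-flipped curve over 0-4 h after rhamnose induction (AUC4h), with ≥20 reads per time point. It is not background-subtracted; inactive controls average about 0.047.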
# 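Note: Bxb1 expression induced with 0.2% (w/v) L-rhamnose at OD600 near 0.5, cultures sampled hourly, flipped fraction per protease–substrate barcode pair counted by paired-end Illumina sequencing.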
Variant,area with substrate ENLDFQS,area with substrate ENLEFQS,area with substrate ENLHFQS,area with substrate ENLKFQS,area with substrate ENLLFQS,area with substrate ENLNFQS,area with substrate ENLRFQS,area with substrate ENLWFQS,area with substrate ENLFFQS,area with substrate ENLIFQS
G153M,0.0544,0.0468,0.0522,0.0519,0.0299,0.0295,0.0848,0.0543,,
S154A,0.0609,,0.0657,0.0744,0.0685,0.0663,0.078,,0.0761,0.0802
S154V,0.0587,,0.0636,,,0.073,,0.0617,0.0673,0.0664
T159P,0.0657,,0.0931,,,,,,,
F163K,0.0755,0.124,0.0533,0.0779,,0.071,,0.0573,0.0741,
F163P,0.0676,,,0.0717,,0.0936,,,,0.0699
F163S,0.0715,,,,,,,,,
F163Y,0.0634,,0.0716,,0.0884,0.0657,0.0626,0.0691,0.0784,0.0357
V165I,0.0399,0.0639,,0.0847,,,,0.0736,,
S169K,0.0542,,,0.0546,,0.011,,,0.0591,
N172R,0.0639,,,,,0.0568,0.0648,,0.0446,
F173T,0.0646,0.0594,0.0855,0.0689,,0.0753,0.0778,,0.0719,
N175Q,0.0435,0.0662,0.0623,0.105,,0.0599,0.0583,,0.139,0.0811
N177G,0.0763,0.0631,0.0551,,,0.0583,0.046,,0.0625,
N178C,0.067,,,0.0911,,,,,,
T181E,0.0626,0.0659,,,,0.0579,,0.0618,0.0525,
T181H,0.0518,,,,,0.0548,,0.0572,,0.0459
K185A,0.0628,,0.0806,0.0762,,0.0835,,,,0.0897
E189Y,0.034,0.082,,0.0802,,0.0504,,,,0.0741
L190D,0.0647,0.0489,0.0551,,,0.054,0.0729,0.0825,,
N193K,0.0432,,,0.101,0.072,,,,,
Q194A,0.0499,,0.0713,0.086,,,,,0.116,
E195H,0.068,,,0.0828,0.073,,0.0584,,0.137,0.0926

Variant,area with substrate ENLDFQS,area with substrate ENLEFQS,area with substrate ENLHFQS,area with substrate ENLKFQS,area with substrate ENLLFQS,area with substrate ENLNFQS,area with substrate ENLRFQS,area with substrate ENLWFQS,area with substrate ENLFFQS,area with substrate ENLIFQS
E195T,0.0054,,,0.0977,,0.0633,,,,0.0762
Q198S,0.055,,,0.0567,0.0465,0.0709,0.0809,,0.0816,0.0775
W199Y,0.0632,,0.0529,0.0664,0.073,,,0.0706,0.0648,
S201C,0.0512,0.0629,0.0673,0.073,0.0634,0.0606,0.0968,0.0862,0.0985,
S201Q,0.0566,,0.0678,,,,,,0.0839,
G202I,0.0755,,,,,0.0444,,,0.0795,
G202W,0.0609,0.0551,,,0.0636,0.0606,0.0582,,,
W203D,0.0518,,0.0591,,,,0.0587,0.0763,0.101,
W203P,0.0573,,,,,,0.0616,,0.0633,
N206R,0.0762,0.0632,0.0543,0.0726,0.0627,0.0803,0.0798,0.0642,0.0665,0.0592
S209G,0.0565,0.109,,0.0829,,0.0503,0.0648,,,
S209R,0.0686,0.0551,0.0516,,,0.0584,,0.0637,0.054,
S209W,0.0686,,0.0893,,,,0.0646,,,
S209Y,0.0868,0.0567,,0.0984,,0.0732,,0.0871,,0.105
L211N,0.0705,0.14,,,,0.0728,,,0.102,
W212A,0.0768,,,,,,,0.0666,0.0947,0.0523
G213C,0.0757,0.0725,0.0614,0.0689,,,0.0627,,,
G213H,0.0638,,0.0661,,,0.0604,,0.0522,0.0483,
H215F,0.0811,0.0671,0.069,0.0549,,,,0.0662,0.071,0.0969
H215I,0.0863,,,0.0578,,,,,,
P222L,0.054,,0.07,0.101,0.0727,,,,,
T233Y,0.0615,,,0.0972,0.0736,0.0629,0.0768,,,
K7S,,0.077,,0.114,,,,,,

# Same assay, conditions: temperature: 34 °C; time window: 0-4 h after rhamnose induction
Variant,area with substrate ENLPFQS,area with substrate ENLQFQS,area with substrate ENLMFQS,area with substrate ENLSFQS,area with substrate ENLVFQS,area with substrate ENLTFQS,area with substrate ENLGFQS
S154A,0.0693,0.0753,,,,,
S154V,0.0728,,,,,,
F163K,,,0.0783,0.0704,0.0803,,
F163P,0.0657,,,0.0673,,,
F163Y,0.0469,0.0599,0.0859,0.0672,,,
V165I,,0.08,0.077,,,0.0573,
S169K,0.0547,,,,0.0589,,
N172R,0.0405,,,,,,
F173T,0.0558,,,,,,
N175Q,,0.0904,,0.0818,,,0.0621
N177G,0.0744,,0.0523,0.0674,,,
N178C,,,,0.065,,,
T181E,0.0566,,,,,,
T181H,0.0666,0.047,0.0647,0.0454,,,
K185A,,0.0732,0.0525,0.0641,0.1,,
E189Y,0.05,,,,,,
L190D,0.0646,0.0338,,,0.097,0.0683,
Q194A,0.0515,0.0674,0.0903,,,,0.063
E195H,,,,,,,0.0415

Variant,area with substrate ENLPFQS,area with substrate ENLQFQS,area with substrate ENLMFQS,area with substrate ENLSFQS,area with substrate ENLVFQS,area with substrate ENLTFQS,area with substrate ENLGFQS
E195T,,0.0949,,0.0688,0.104,,
Q198S,0.0741,0.0684,0.0387,0.0624,,,
W199Y,0.0812,0.0684,,,,0.0571,0.082
S201C,0.0639,0.0797,,0.0276,0.0815,,
S201Q,,0.0835,,0.0753,,,
G202I,,0.0697,,,,,
G202W,0.0709,0.0633,,0.0547,0.0622,,
W203P,,,0.0455,0.0544,,,
N206R,,,,0.0666,,,
S209G,0.0638,,,,,,
S209R,,0.0851,0.0923,0.0571,0.0725,,0.0821
S209W,,,,0.0763,0.0867,,
L211N,,,,,0.0847,,
W212A,,,,0.0448,,,
G213C,0.0688,0.0628,,0.059,0.0595,,
G213H,,,,0.0689,,,
H215F,,0.06,,0.0528,,,
P222L,,,,,0.0597,,
T233Y,0.0516,,0.0626,,,,
